# According to the supplement of paper PMC8728848:
# Shown is part of a subset that was picked to be rich in the strongest signals.
# Tested on: Gal3S(b1-4)Glc6S
# Experiment: glycan array binding signal (z-score within array); higher = stronger binding
# Settings: glycan notation: IUPAC condensed, linker removed
# Method in brief: (§1)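 Arrays were curated from the Consortium for Functional Glycomics database, 3228 in total, and kept only where the protein sequence was available. Binding is expressed as a within-array Z-score. This score was averaged across arrays of the same protein sequence at different concentrations or buffers and across linkers, and negative values can be read as non-binding.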
row,Substance,glycan array binding signal (z-score)
1,M-Ficolin Y271F (Homo sapiens) (chain not printed),0.33
2,Galectin-8 C-terminal CRD (Homo sapiens) (chain not printed),5.8
3,Gal 8 long (Homo sapiens) (chain not printed),3.92
4,Gal 3 (Homo sapiens) (chain not printed),0.1

# Tested on: Gal3S(b1-4)Glc
# Experiment: as above
# Settings: glycan notation: IUPAC condensed, linker removed
# Method in brief: as §1
row,Substance,glycan array binding signal (z-score)
1,Galectin-8 C-terminal CRD (Homo sapiens) (chain not printed),0.714
2,L-Ficolin (Homo sapiens) (chain not printed),-0.183
3,Serum Amyloid P component (Homo sapiens) (chain not printed),0.118

# Tested on: Gal3S4S(b1-4)GlcNAc
# Experiment: as above
# Settings: glycan notation: IUPAC condensed, linker removed
# Method in brief: as §1
row,Substance,glycan array binding signal (z-score)
1,Collectin K1 (Homo sapiens) (chain not printed),-0.198
2,FGF2 (chain not printed),6.35
3,MBP (Homo sapiens) (chain not printed),-0.13

# Tested on: Gal3S6S(b1-4)GlcNAc6S
# Experiment: as above
# Settings: glycan notation: IUPAC condensed, linker removed
# Method in brief: as §1
row,Substance,glycan array binding signal (z-score)
1,CLEC-2 (Homo sapiens) (chain not printed),5.83
2,FGF2 (chain not printed),3.54
3,L-Ficolin (Homo sapiens) (chain not printed),3.53
4,Serum Amyloid P component (Homo sapiens) (chain not printed),1.45

# Tested on: Gal3S6S(b1-4)GlcNAc
# Experiment: as above
# Settings: glycan notation: IUPAC condensed, linker removed
# Method in brief: as §1
row,Substance,glycan array binding signal (z-score)
1,M-Ficolin (Homo sapiens) (chain not printed),-0.143
2,NCAM1 (Homo sapiens) (chain not printed),-0.194
3,Gal 8-short (Homo sapiens) (chain not printed),-0.646
